Hit rate of the full screen: of about 48,000 compounds, about 120 (0.25%) were called active. Roughly 4% stayed inconclusive and do not appear here. The call rests on the fitted dose curve; in most records, active means well fitted activation curve with a large enough effect; inconclusive means small, poorly fitted or top-dose-only effect, or another doubt; inactive means no such curve, though single readings can be large or run the other way. Some of the results follow.
Assay: Primary qHTS for Identification of Small Molecule Activators of Huntingtin-Antisense Promoter Activity; further: nearly all actives have a fitted effect of over 55% in size
Settings: HEK293 HTT-AS promoter firefly luciferase reporter, 24 h; series mostly up to 57.5 µM; activity change, positive = activation: at the top concentration
Procedure, shortened: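 HEK293 luciferase promoter-reporter cells (2,500/well) plated 24 h, then compounds added at up to 57.5 uM final for 24 h at 37 °C. Firefly luminescence by Dual-Glo, normalized to vehicle (0%) and zero RLU (-100%).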

Activity change, positive = activation, inactive:
Clc1ccc(CN2CCc3nc(Nc4ccc5c(c4)OCCO5)ncc3C2)cc1 -7.19%
CCOc1ccccc1CN(CCc1ccc2c(c1)OCO2)Cc1cc(OC)c(OC)cc1OC -13.9%
Cc1ccccc1C(=O)NCc1ccc2c(c1)CCN2C(=O)c1ccccc1 -34.5%
CCn1c(=O)c2sccc2n2c(CCCC(=O)N3CCN(c4ccccc4OC)CC3)nnc12 -4.96%
CCCCCCOc1ccccc1C(N)=O -5.88%
O=C(c1ccc(F)cc1)N1c2ncnn2C2(CCCCC2)[C@@H]2CCCC[C@@H]21 -29%
COc1ccc(CNC(=O)C(=O)NCC(c2cccs2)S(=O)(=O)c2ccc(C)cc2)cc1 (stereo not given) -34%
CCn1c(SCC(=O)Nc2cccc(Cl)c2)nnc1-c1nonc1NC(C)=O -18.1%
Cc1ccc(-c2nsc(NC(=O)c3oc4cc(C)c(Cl)cc4c3C)n2)cc1 2.29%
CCCCOc1ccc(C(=O)Nc2ccc3c(c2)N(C(C)=O)CCC3)cc1 -87.9%
Cn1cccc1-c1cc2n(n1)CCC(=O)N2CC(=O)Nc1ccc(F)cc1Cl -12.5%
CC(C)NC[C@@H](C(=O)N1CCN(c2ncnc3c2[C@H](C)C[C@H]3O)CC1)c1ccc(Cl)cc1 -39.8%
Cc1ccc(S(=O)(=O)N2CCCc3cc(NC(=O)c4cccc(Cl)c4)ccc32)cc1 0%
CCOc1cc(CNc2ccc(O)cc2)cc(Cl)c1OCc1ccccc1 -21.4%
Cc1c(NC(=O)Cc2ccccc2)cccc1-c1nc2cccnc2s1 -2.19%
CCOC(=O)c1c(C)[nH]c(C)c1S(=O)(=O)N1CCC(C(=O)NCc2ccc(OC)cc2)CC1 2.21%
Cn1nc(-c2ccccc2F)c2cc(C(=O)N3CCN(c4ccccc4F)CC3)sc21 -52.8%
CCOc1ccc(NC(=O)c2cc3nc(-c4ccc(OC)cc4)cc(C(F)(F)F)n3n2)cc1 4.08%
COC(=O)c1ccc2c(=O)n(CCCCCC(=O)N3CCN(c4cccc(C)c4C)CC3)c(=O)[nH]c2c1 -41.2%
COCCCNc1nc2c(-c3cccc(Br)c3)nnn2c2ccccc12 15.3%
CCS(=O)(=O)N1CCc2cc(C(=O)NCc3ccc(C)cc3)ccc21 -15.6%
O=C(CSc1nc2c([nH]c3ccccc32)c(=O)n1-c1ccc(F)cc1)Nc1ccc2c(c1)OCCO2 -31.2%
Cc1cccc(-c2cc(-c3ccccc3)nc(SCC(=O)Nc3ccccc3)c2C#N)c1 16.3%
Cc1ccc(S(=O)(=O)N(CC(O)Cn2c3ccccc3c3ccccc32)c2cccc(C(=O)NCCO)c2)cc1 (stereo not given) -42.6%
CCC(Cn1nnc2ccccc2c1=O)NC(=O)Nc1ccccc1Cl (stereo not given) -10%
CCC(Sc1nc2ncccc2[nH]1)C(=O)Nc1ccccc1F (stereo not given) -15.4%
CC(C)(C)c1cc(C(C)(C)C)c(NC(=O)c2c[nH]c3ccccc3c2=O)cc1O -8.24%
COc1ccc2c(CNCc3cccs3)c(C(=O)O)n(Cc3ccccc3C)c2c1 -11.4%
O=C(OCC1CCCO1)c1ccc2c(c1)N(Cc1ccc(F)cc1)C(=O)c1ccccc1S2(=O)=O (stereo not given) -18.1%
COc1cc(OC)c(N(C)C(=O)c2cc3c(s2)-c2ccccc2OC3)cc1Cl -23.8%
Cc1ccc(Cl)cc1NC(=O)N1CCC(CN2CCc3ccccc3C2)CC1 -15.3%
CCC(=O)NCc1nc2ccccc2n1Cc1ccccc1 -6.23%
Cc1ccc(Sc2ccc(N3CCC(C(=O)Nc4ccc(Cl)cc4)CC3)nn2)cc1 -14.3%
CCc1ccc(C(=O)c2cn(CC(=O)NCc3ccc(C)cc3)c3nc(C)ccc3c2=O)cc1 -20.6%
CCOC(=O)CCNC(=O)N1CCN(S(=O)(=O)c2ccc3c(ccn3C)c2)CC1 -9.7%
Cc1ccc(CNC(=O)Cn2c(-c3cccs3)cc3cc(Cl)ccc32)cc1 -20.9%
O=C(Nc1nc2c(F)cccc2s1)c1ccc2c(c1)OCCO2 -38.2%
Cc1ccc(CNC(=O)c2ccc3c(c2)NC(=O)C(CS(=O)(=O)Cc2cccc(F)c2)N3)cc1 (stereo not given) -25.9%
Cc1ccc(N2C(=O)C(CC(=O)Nc3ccc(F)cc3)N(Cc3ccc4c(c3)OCO4)C2=O)cc1 (stereo not given) -1.81%
CC(=O)c1ccc(NC(=O)c2cc3c(=O)oc4ccc(C)cc4c3s2)cc1 -14%
Cc1cccc(N2C(=O)C(CC(=O)Nc3cccc(F)c3)N(CCc3ccncc3)C2=O)c1 (stereo not given) -15.9%
Cc1ccc(C(=O)Nc2ccc(S(=O)(=O)N(Cc3ccccc3)c3ccccc3)cc2)cc1 -35.2%
COc1ccc(NC(=O)C2=CC(c3ccc4c(c3)OCO4)=NS(=O)(=O)N2C)cc1OC -21.3%
O=S(=O)(c1ccc(Cl)cc1)c1nc(-c2ccccc2F)oc1NCc1ccccc1 -5.79%
Cc1c(C(=O)NCc2ccc(Cl)cc2)sc2nc3n(c(=O)c12)CCC3 -7.52%
CN1CCN(CC(=O)N2c3ccccc3C(=O)Nc3cccnc32)CC1 -5.42% [at 6 µM, percent change from vehicle, -100% = no light]
COc1ccc(-c2nc3n(n2)C(c2ccccc2)C(C(=O)Nc2cccnc2)=C(C)N3)cc1 (stereo not given) -16%
COCCNC(=O)CN1C(=O)CCn2nc(-c3cn(C)c4ccccc34)cc21 -9.03%
CCOC(=O)N1CCN(CCC(=O)Nc2cccc(F)c2)CC1 7.78% [at 11.5 µM, percent change from vehicle, -100% = no light]
COc1cc([C@@H]2Nc3c(F)cccc3[C@@H]3C=CC[C@@H]32)cc(Br)c1OC -15.3%
Cc1c(C(=O)O)oc2c1-c1nn(Cc3ccccc3Cl)cc1CC2 -26.9%
CC(=O)N(CC(O)CO)c1c(I)c(C(=O)NCCO)c(I)c(C(=O)NCC(O)CO)c1I (stereo not given) 5.11%
COc1ccc2c(Sc3ccc(C)cc3)c(C(=O)NC(C)c3ccccc3)[nH]c2c1 (stereo not given) 9.1%
CCc1ccccc1NC(=O)c1ccc(F)c(S(=O)(=O)N2CCN(c3ccccc3OC)CC2)c1 -40.6%
O=C(Cc1ccc(NC(=O)N2CCSc3ncccc32)cc1)NCc1cccc(Cl)c1 -19.4%
Cc1ccc2c(=O)c(C(=O)c3ccc(Cl)cc3)cn(CC(=O)Nc3ccc4c(c3)OCCO4)c2n1 -20.4%
Cc1cccc(C(=O)NCc2nc3ccccc3n2Cc2ccccc2Cl)c1 -16.7%
CCOc1ccccc1CNC(=O)c1oc2c(c1C)-c1nn(Cc3cccc(Cl)c3)cc1CC2 -33.5%
Cc1ccc(NC(=O)C2CCCN2S(=O)(=O)c2cccc3cccnc23)c(C)c1 (stereo not given) -24.6%
O=C(Nc1cccc(OCc2cc(=O)n3ccccc3n2)c1)Nc1cccc(C(F)(F)F)c1 18.7%
COc1ccc(Cl)cc1C(=O)NCCS(=O)(=O)N1CCN(c2ccccc2OC)CC1 -23.6%
COc1cccc(NC(=O)Cn2c(=O)n(Cc3ccc(C(=O)NCc4ccc(C)cc4)cc3)c(=O)c3ccccc32)c1 -11.6%
CCOC(=O)c1c(C)n(-c2ccccc2)c2ccc(OC(=O)c3c(F)cccc3F)cc12 -22.6%
CCOc1ccc(Cn2c(CNS(=O)(=O)c3ccc(C(C)(C)C)cc3)nc3cccnc32)cc1 -20.7%
COc1ccc(CCNC(=O)C2c3ccccc3C(=O)N2Cc2ccccc2)cc1OC (stereo not given) -17.4%
COc1ccc(OC)c(CC2C(=O)Nc3ccc(Br)cc32)c1 (stereo not given) -51.2%
CCOC(=O)c1c(C)oc2ccc(N(C(C)=O)S(=O)(=O)c3c(C)cc(C)cc3C)cc12 -14.9%
COC(=O)c1cc2sccc2n1Cc1ccc(F)cc1Cl -12.6%
C[C@H](CCC(=O)O)[C@H]1CC[C@H]2[C@@H]3[C@H](O)C[C@@H]4C[C@H](O)CC[C@]4(C)[C@@H]3CC[C@]12C -26.3%
Cc1cc(N2CCN(c3cc(Cl)ccc3C)CC2)n2nc(-c3ccccc3)nc2n1 -14.5%
N#Cc1ccc(NC(=O)C2Cc3ccccc3CN2S(=O)(=O)c2ccc(F)cc2)cc1 (stereo not given) -39.3%
CCCCNC(=O)C1CCC(Cn2c(=O)c3sccc3n(CC(=O)Nc3ccccc3)c2=O)CC1 (stereo not given) -15.7%
O=C(COc1ccc(F)cc1)Nc1ccc2nc(SCCOc3ccccc3)sc2c1 -18%
COCCn1c(=N)c(C(=O)NC2CCCC2)cc2c(=O)n3cc(C)ccc3nc21 1.77%
O=C(Nc1ccccc1C(=O)OCc1cc(=O)n2ccsc2n1)c1ccccc1Cl 18.3%
CCN(CC)CCNC(=O)c1cn(CC)c2ccc(S(=O)(=O)N3CCc4ccccc4C3)cc2c1=O -10.8%
CCC(=O)N1CCc2cc(Br)cc(S(=O)(=O)CCC(=O)Nc3ccc(Cl)cc3)c21 11.9%
Cc1cccc(C)c1NC(=O)CCC(=O)N1Cc2ccccc2Oc2ncccc21 -14.4%
CCOC(=O)c1cc(-c2ccc(C)cc2)n(CCC(=O)NCCc2ccc(C)cc2)c1C -23.3%
COc1cc(-c2cc3n(C)c(C)c(CCC(=O)NC4CCCCC4)c(=O)n3n2)cc(OC)c1OC -11.6%
CCC(=O)N1CCc2cc(Br)cc(S(=O)(=O)N3CCN(c4cc(C)ccc4C)CC3)c21 -9.79%
COc1ccc(Oc2nc3c(c(=O)n(C)c(=O)n3C)n2Cc2ccc(Cl)cc2Cl)cc1 8.46%
CC(=O)N(CC(O)CO)c1c(I)c(C(=O)NCC(O)CO)c(I)c(C(=O)NCC(O)CO)c1I (stereo not given) -0.458%
O=C(NC1CCN(Cc2ccccc2)CC1)c1ccc(Cn2c(=O)c3ccccc3n(Cc3cccc(F)c3)c2=O)cc1 -19.1%
Cc1cccc(C)c1-n1ncc(C(=O)NCCN2CCN(C)CC2)c1C1CCN(C(=O)OC(C)(C)C)CC1 -3.58%
CCOc1ccc(C(=O)NCc2nc(-c3ccc(Cl)cc3)no2)cc1OCC 10.5%
CCOC(=O)c1cnc2ccc(OC)cc2c1Nc1cccc(C(C)=O)c1 -31.2%
CCN(Cc1ccccc1)S(=O)(=O)c1ccc(F)c(C(=O)Nc2cc(C)ccc2OC)c1 -22.8%
Cc1cccc(NC(=O)C2CCN(S(=O)(=O)c3c(C)noc3/C=C/c3ccco3)CC2)c1 -28.7%
Cc1ccccc1OCC(=O)Nc1ccc2nc(SCC(=O)N3CCOCC3)sc2c1 -22.2%
